Laboratory results: PubChem BioAssay AID1963435 (Molecular Pharmacology Branch, DTP, NCI, 2024)
A number of entries come with more than one value. They are shown here; other results are not. An entry can have further records. The records of an entry repeat one measurement in other runs, samples, wells, individuals or studies. Signs of the kind (2×) count equal records among those shown.

Tested on: PANC-1 complex spheroid growth, percent test/control
Assay: Anticancer human tumor PANC-1 cell line growth inhibition [Asc];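 note: spheroids exposed to agents for 7 days; percent viability relative to DMSO vehicle wells taken as 100%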
Conditions: stronger effect = lower value
Procedure: Multicellular complex tumor spheroid response to apoptosis pathway targeting inhibitors Alrizomadlin, Pelcitoclax, and Dasminapant in combination with a variety of drugs and investigational agents in selected tumor cell lines
The MDM2 inhibitor alrizomadlin, the Bcl-2/Bcl-xL inhibitor pelcitoclax, and the IAPs inhibitor dasminapant were evaluated both individually and in combination with standard of care and investigational anticancer small molecules within a complex spheroid model of solid tumors. . Complex spheroids include a stromal component modeled by human endothelial cells (HUVEC) and fibroblasts modeled by human mesenchymal stem cells (MSCs). The concentration ranges selected for each drug and investigational agent were based upon clinically achievable concentrations if the clinical Cmax of the agent was known.
Compounds. The drugs and investigational agents: alrizomadlin (APG-115; NSC831270), pelcitoclax (APG-1252; NSC835773), dasminapant (APG-1387;NSC834197), TAK-243 (NSC785004), copanlisib (NSC809693), olaparib (NSC753686), talazoparib (NSC767125), cobimetinib (NSC 768068), eltanexor (KPT-8602, NSC 794443), abemaciclib (NSC 768073), sotorasib (NSC818433), adagrasib (NSC 831453), MRTX-1133 (NSC 836407), Iadademestat (ORY1001, NSC 806812), and RMC-4630 (NSC839698), were obtained from the NCI Developmental Therapeutics Program Chemical Repository. The FDA-approved anticancer drug set is available from the Developmental Therapeutics Program at https://dtp.cancer.gov/organization/dscb/obtaining/available plates.htm. […] The stock solutions were prepared in dimethyl sulfoxide (DMSO, Sigma-Aldrich, St. Louis, MO, cat. D2650) at 800-fold the tested concentration and stored at -70 degrees C prior to their use. All drugs and investigational agents were tested over a range starting from a high concentration at or near the clinical Cmax and decreasing in half-log increments. If the clinical Cmax for an agent had not been determined, the highest concentration tested was 10 microM. […]

Q: `Cc1c(S(C)(=O)=O)c(-c2cc(F)cc(N3CCN(c4ccc(NS(=O)(=O)c5ccc(NC(CCN6CCC(C(=O)OCCCP(=O)(O)O)CC6)CSc6ccccc6)c(S(=O)(=O)C(F)(F)F)c5)cc4)CC3)c2)c(-c2ccc(Cl)cc2)n1C(C)C` (stereo not drawn) was tested. Which viability, T/C (compound alone 0.316 µM) did it give?
A: 109, 94.7, 102, 124, 99.6, 107, 108%

Q: What about the viability, T/C (compound alone 1 µM) of the same compound?
A: 109, 101, 107, 130, 104, 119, 102%

Q: What about the viability, T/C (compound alone 10 µM) of the same compound?
A: 173, 174, 153 (2×), 182, 168, 167%
